Results from patent publication US12616716B2, “Wound healing dressings and formulations and methods of use thereof” (Polaroid IP B.V., priority 2023, dated 2026).

Tests used:
Assay in all cases: MBC, spot plating after 24 h in MH broth
Set-up in all cases: key: —: no activity observed
Settings in all cases: Table 18; —: no activity observed
[1] = tested on: Klebsiella pneumoniae KL1
Source text: (§1) Results are presented as CFU per mL.

[2] = tested on: Enterococcus faecalis EF51299
Source text: as §1

[3] = tested on: Pseudomonas aeruginosa 27853
Source text: as §1

[4] = tested on: Enterococcus faecalis EF19433
Source text: as §1

[5] = tested on: Staphylococcus aureus MR1
Source text: as §1

[6] = tested on: Staphylococcus aureus ATCC 29213
Source text: as §1

[7] = tested on: Escherichia coli EC25922
Source text: as §1

CCCCCCCCCCCCCCCCCC[N+](C)(C)CCOCCO.[Br-] [Compound 39637_105543]
—: MBC KL1 [1] | MBC EF51299 [2] | MBC PA27853 [3]

CCCCCCCCCCCCCCCCCC[N+](C)(C)CCOCCO.[Br-] [Compound 39637_109466]
—: MBC PA27853 [3]

CCCCCCCCCCCC[N+](C)(C)CCOCCO.[Br-] [Compound 40597_109444]
—: MBC KL1 [1] | MBC EF19433 [4] | MBC MR1 [5] | MBC EF51299 [2] | MBC SA29213 [6] | MBC PA27853 [3] | MBC EC25922 [7]

CCCCCC[N+](C)(C)CCOCCO.[Br-] [Compound 40598_109448]
—: MBC KL1 [1] | MBC EF19433 [4] | MBC MR1 [5] | MBC EF51299 [2] | MBC SA29213 [6] | MBC PA27853 [3] | MBC EC25922 [7]
